# Hit rate of the full screen: of about 110,000 compounds, about 40 (0.04%) were called active. The shares of active, inactive and inconclusive entries below differ from those in the screen. Calls come from the whole dose curve; as a rule, active = well fitted curve in the direction sought with a large enough effect in the signal ratio (not every such curve was filed as active); inconclusive = small, poorly fitted or top-dose-only effect, or a change in a side signal; inactive = flat fitted curve, though single readings scatter; the % refers to the signal ratio. Where the call is inconclusive, the potency comes from a doubtful curve fit.
# Test: IkB Signaling;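 for IkBa stabilization activation: 0% = basal untreated cells and 100% = reference inhibitor full response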
# Conditions: ABC-DLBCL IkBa-CBG/CBR dual luciferase ratio (green luciferase fused to IkBa over red control in OCI-Ly3 lymphoma cells), 4 h; IkBa stabilization activation: at 57.1 µM (top of the series), scaled: untreated 0%, proteasome inhibitor 100% unless noted
# Procedure, shortened: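 Luminescence ratio of IκBα-fused green versus native red beetle luciferase in OCI-Ly3 cells, 4 h post-doxycycline with compound; red signal alone, scaled from basal (0%) to zero light (-100%), flagged nonspecific or cytotoxic effects.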
# Potency is the fitted concentration of half-maximal effect.
SMILES,IkBa stabilization activation,Potency
COc1ccc(S(=O)(=O)N(CC(=O)Nc2ccccc2Cl)Cc2ccccc2)cc1,inconclusive: -1.11% [signal inhibitor],
Cc1ccc(CCNC(=O)CN2C(=O)COc3ccc(S(=O)(=O)N4CCCCCC4)cc32)cc1,inconclusive: -0.879% [signal inhibitor],
O=C(Nc1cccc(Cl)c1)c1cc(-c2ccc3c(c2)OCO3)on1,,"inconclusive: 1.26 µM [signal inhibitor, full curve]"
COc1ccc(Oc2ncc3nc(C)c(=O)n(Cc4ccc(F)cc4)c3n2)cc1,"inactive: 2.38% [at 11.4 µM, scaled: untreated 0%, proteasome inhibitor 100%]",
COc1cc(OC)cc(C(=O)Nc2ccc3nc4n(c(=O)c3c2)CCCCC4)c1,inconclusive: 5.78% [signal inhibitor],
COc1ccccc1C(=O)Oc1c(Sc2ccccc2)c(C)nn1-c1ccccc1,inconclusive: 4.63% [signal inhibitor],
O=C(Nc1ccc(F)cc1F)c1cc(S(=O)(=O)N2CCCCC2)c[nH]1,inconclusive: 2.46% [signal inhibitor],
Cc1ccc(C)c(N2C(=O)N(Cc3cccc(C(F)(F)F)c3)c3ccccc3S2(=O)=O)c1,inconclusive: 3.84% [signal inhibitor],
CCn1c2c(c(=O)n3ncc(C(=O)N4CCN(c5ccc(C(C)=O)cc5)CC4)c13)CN(Cc1ccc(OC)cc1)CC2,inconclusive: 4.86% [signal inhibitor],
COc1ccc(F)cc1S(=O)(=O)Nc1ccc2c(c1)CCCN2C(=O)c1cccs1,inconclusive: 1.29% [signal inhibitor],
CCOC(=O)CSc1nc2cc(OC)c(OC)cc2c2nc(-c3ccccc3)nn12,inactive: -2.16%,
COC(=O)c1sccc1S(=O)(=O)N(CC(=O)NCc1ccc(C)cc1)c1ccc(C)c(C)c1,inconclusive: 0.667% [signal inhibitor],
CS(=O)(=O)N1CCN(C(=O)c2ccc(-c3ccccc3)cc2)CC1,inactive: -0.154%,
Cc1cc(NC(=O)c2cc(Cl)ccc2Cl)ccc1-c1cc2ccccc2oc1=O,inconclusive: 2.76% [signal inhibitor],
CC(=O)c1c(C)oc2c1cc(NS(=O)(=O)c1c(C)cc(C)cc1C)c1ccccc12,inconclusive: 4.41% [signal inhibitor],
O=C(COC(=O)c1cnccn1)c1ccc2c(c1)CCCC2,inactive: -0.676%,
COc1ccc(-c2cc(C(=O)OCC(=O)N(C)C)c3ccccc3n2)cc1,inactive: 1.18%,
Cc1ccc(C)c(N2CCN(C(=O)CCCCn3c(=O)[nH]c4ccccc4c3=O)CC2)c1,inconclusive: 1.95% [signal inhibitor],
CCOC(=O)N1CCC(NC(=O)C(CC(C)C)NC(=O)C2CCCCC2)CC1 (stereo not given),inactive: 1.41%,
COc1ccccc1CNc1ncnc2ccc(-c3ccccc3OC)cc12,"inactive: 13.7% [at 11.4 µM, scaled: untreated 0%, proteasome inhibitor 100%]",

SMILES,IkBa stabilization activation,Potency
COc1ccc(C2=NS(=O)(=O)N(C)C(C(=O)N(C)Cc3ccccc3)=C2)cc1OC,,"inconclusive: 0.501 µM [signal inhibitor, full curve]"
O=c1c(CCc2ccccc2)nc2cnc(Nc3ccccc3)nc2n1Cc1cccs1,"inactive: 1.8% [at 11.4 µM, scaled: untreated 0%, proteasome inhibitor 100%]",
Cc1ccccc1OCc1nc2ccccc2n1Cc1ccccc1Cl,inconclusive: -0.497% [signal inhibitor],
CC(=O)c1ccc(NC(=O)CSc2cn(CC(=O)N(C(C)C)C(C)C)c3ccccc23)cc1,inconclusive: 2.31% [signal inhibitor],
CCS(=O)(=O)N1CCc2cc(C(=O)Nc3cccc(C(C)=O)c3)ccc21,inconclusive: 1.83% [signal inhibitor],
CCCCN(CC)C(=O)CCNS(=O)(=O)c1ccc2c(c1)c(=O)n(C)c(=O)n2C,inconclusive: 1.45% [signal inhibitor],
CCCOc1cccc(C2c3c(-c4ccccc4O)n[nH]c3C(=O)N2Cc2ccco2)c1 (stereo not given),inconclusive: -2% [signal inhibitor],
CC(C)CCn1c(Oc2ccccc2F)nc2c1c(=O)n(C)c(=O)n2C,inconclusive: 1.51% [signal inhibitor],
CCCCN1C(=O)C(O)(CC(=O)c2ccco2)c2cc(Br)ccc21 (stereo not given),inconclusive: 4.54% [signal activator],
COC(=O)c1cccc(NC(=O)c2cccc(OC)c2)c1,inactive: 3.44%,
COc1ccc(C(CNC(=O)c2oc3cc(C)c(Cl)cc3c2C)N2CCCCC2)cc1 (stereo not given),inconclusive: 0.38% [signal inhibitor],
COCCNC(=O)CCc1c(C)n(C)c2cc(-c3cc(OC)c(OC)c(OC)c3)nn2c1=O,inconclusive: 3.91% [signal inhibitor],
O=C(Cn1nc(-c2ccc(Cl)cc2)c2ccccc2c1=O)Nc1cccc(C(F)(F)F)c1,inconclusive: 9.39% [signal inhibitor],
CCOC(=O)c1cc2c(=O)n3ccccc3nc2n(CCCOC)c1=NC(=O)C(C)(C)C,inactive: -1.59%,
COC(=O)c1scc(-c2ccc(C)cc2)c1S(=O)(=O)N1CCN(c2ccc(C)cc2C)CC1,inconclusive: -0.19% [signal inhibitor],
COc1cccc(Nc2nc3ccccc3c3nncn23)c1,inconclusive: 4.39% [signal inhibitor],
CN(C)C(=O)c1ccc(-c2cc(NCc3ccccc3)ncn2)cc1,"inactive: 1.45% [at 11.4 µM, scaled: untreated 0%, proteasome inhibitor 100%]",
Cn1c(SCc2cc(=O)c3cc(Cl)ccc3[nH]2)nnc1-c1ccccc1,inconclusive: -0.17% [signal inhibitor],
CCc1cc(=O)oc2c(C)c3c(cc12)CN(CCc1ccccc1OC)CO3,inconclusive: -0.521% [signal inhibitor],
COCCCNC(=O)c1sc2nc(C)c(C(=O)Nc3ccc(C)cc3C)c(-c3ccccc3Cl)c2c1N,inconclusive: -0.35% [signal inhibitor],
